In test [1] the test system is RAW-Dual. The test can be described thus: NF-kB SEAP reporter activity, fold change vs agonist alone; cytotoxicity flag (confluency mask): not cytotoxic; higher = enhanced NF-kB activity. The method in brief: (§1)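 After 50 nL of library stock was delivered by pin tool to RAW-Dual macrophages (50,000 cells/well, DMEM, 384-well plates), a PRR agonist was added 1 h later and the plates were kept at 37 °C, 5% CO2. Twenty hours later, IRF was read from supernatant by QuantiLuc luminescence and NF-κB by QuantiBlue absorbance at 620 nm. Reporter activity is stated as fold change over agonist-alone wells. Wells with IncuCyte confluency under 70% of agonist controls in both mask sets were counted as cytotoxic.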

For test [2], the system named is RAW-Dual. The test can be described thus: NF-kB SEAP reporter activity, fold change vs agonist alone; higher = enhanced NF-kB activity. The method in brief: as §1
In test [3] the test system is RAW-Dual. Put plainly: NF-kB SEAP reporter activity, fold change vs agonist alone; cytotoxicity flag (confluency mask): cytotoxic (confluency <70% of control); higher = enhanced NF-kB activity. The method in brief: as §1
[4] abbreviates: agonist: ODN 1826 (TLR9) 0.5 ug/mL.
[5] abbreviates: agonist: Pam2CSK4 (TLR2/6) 0.1 ug/mL.
[6] abbreviates: agonist: Pam3CSK4 (TLR2/1) 0.1 ug/mL.
[7] abbreviates: library stock concentration (final ~1000-fold dilution): 10 mM, cytotoxicity flag (confluency mask): not cytotoxic, agonist: Imiquimod (TLR7) […].
[8] abbreviates: library stock concentration (final ~1000-fold dilution): 10 mM, cytotoxicity flag (confluency mask): not cytotoxic, agonist: MPLA (TLR4) […].
Where [9] appears, read: library stock concentration (final ~1000-fold dilution): 10 mM, cytotoxicity flag (confluency mask): cytotoxic (confluency <70% of control), agonist: Imiquimod (TLR7) […].
The mark [10] stands for this setting: library stock concentration (final ~1000-fold dilution): 10 mM, cytotoxicity flag (confluency mask): cytotoxic (confluency <70% of control), agonist: MPLA (TLR4) […].

These results are taken from the supplement of paper PMC10037445.

Whole data set: some 2,900 compounds, median “NF-kB SEAP reporter activity, fold change vs agonist alone” near 0.99, cut for the highest 2% near 2.6. The list shows a part of the results.

Regarding `O=C(CCCN1CC=C(n2c(=O)[nH]c3ccccc32)CC1)c1ccc(F)cc1` (library stock concentration (final ~1000-fold dilution): 10 mM), the “NF-kB SEAP reporter activity” value with RAW-Dual [1] (agonist: LPS (TLR4) 0.1 ug/mL) came to 0.928; with RAW-Dual [1] (setting [4]) it was 0.688; in the test with RAW-Dual [1] (setting [5]) it was 0.982; in the test on RAW-Dual [1] (setting [6]), 0.96.
Consider `O=C(CCCN1CC=C(n2c(=O)[nH]c3ccccc32)CC1)c1ccc(F)cc1`, for which the “NF-kB SEAP reporter activity” value stood at 1.01 in the test on RAW-Dual [2] (setting [7]) and 1.05 in the test on RAW-Dual [2] (setting [8]).
With `O=C(O)c1cc(O)c2c(c1)C(C1c3cc(C(=O)O)cc(O)c3C(=O)c3c(OC4OC(CO)C(O)C(O)C4O)cccc31)c1cccc(OC3OC(CO)C(O)C(O)C3O)c1C2=O` (centres undefined) (library stock concentration (final ~1000-fold dilution): 10 mM), the “NF-kB SEAP reporter activity” value was 1.25 in the test on RAW-Dual [1] (agonist: LPS (TLR4) 0.1 ug/mL), 1.1 with RAW-Dual [1] (setting [4]), 1.14 in the test with RAW-Dual [1] (setting [5]) and 0.998 in the test on RAW-Dual [1] (setting [6]).
In the case of `O=C(O)c1cc(O)c2c(c1)C(C1c3cc(C(=O)O)cc(O)c3C(=O)c3c(OC4OC(CO)C(O)C(O)C4O)cccc31)c1cccc(OC3OC(CO)C(O)C(O)C3O)c1C2=O` (centres undefined), the “NF-kB SEAP reporter activity” value was 0.679 in the test with RAW-Dual [2] (library stock concentration (final ~1000-fold dilution): 2 mM, cytotoxicity flag (confluency mask): not cytotoxic, agonist: Imiquimod (TLR7) […]); 1.04 in the test on RAW-Dual [2] (library stock concentration (final ~1000-fold dilution): 2 mM, cytotoxicity flag (confluency mask): not cytotoxic, agonist: MPLA (TLR4) […]); 0.764 in the test with RAW-Dual [2] (setting [7]); 1.05 in the test with RAW-Dual [2] (setting [8]).
As for `O=C(O)c1cc(O)c2c(c1)C(C1c3cc(C(=O)O)cc(O)c3C(=O)c3c(OC4OC(CO)C(O)C(O)C4O)cccc31)c1cccc(OC3OC(CO)C(O)C(O)C3O)c1C2=O` (centres undefined) (library stock concentration (final ~1000-fold dilution): 2 mM), the “NF-kB SEAP reporter activity” value was found to be 1.05 in the test with RAW-Dual [1] (agonist: LPS (TLR4) 0.1 ug/mL), 1.1 in the test on RAW-Dual [1] (setting [4]), 1.14 in the test on RAW-Dual [1] (setting [5]) and 1.05 in the test with RAW-Dual [1] (setting [6]).
With `COc1ccc2cc(CCC(C)=O)ccc2c1` (library stock concentration (final ~1000-fold dilution): 10 mM), the “NF-kB SEAP reporter activity” value turned out to be 1.51 in the test with RAW-Dual [1] (agonist: LPS (TLR4) 0.1 ug/mL), 1.04 in the test on RAW-Dual [1] (setting [4]), 1.18 in the test with RAW-Dual [1] (setting [5]) and 1.22 in the test on RAW-Dual [1] (setting [6]).
`COc1ccc2cc(CCC(C)=O)ccc2c1`: the “NF-kB SEAP reporter activity” value in the test with RAW-Dual [2] (setting [7]) turned out to be 1.04; in the test on RAW-Dual [2] (setting [8]) it was 1.13.
For `CCn1cc(C(=O)O)c(=O)c2ccc(C)nc21`, the “NF-kB SEAP reporter activity” value with RAW-Dual [2] (setting [7]) was 0.92; in the test on RAW-Dual [2] (setting [8]), 1.04.
As to `CCn1cc(C(=O)O)c(=O)c2ccc(C)nc21` (library stock concentration (final ~1000-fold dilution): 10 mM), the “NF-kB SEAP reporter activity” value with RAW-Dual [1] (agonist: LPS (TLR4) 0.1 ug/mL) worked out at 0.895; with RAW-Dual [1] (setting [4]), 1.03; with RAW-Dual [1] (setting [5]) it was 1.1; in the test with RAW-Dual [1] (setting [6]), 1.03.
As for `CN(C)c1ccc(C(=O)NCCCCCCC(=O)NO)cc1`, the “NF-kB SEAP reporter activity” value in the test on RAW-Dual [2] (setting [9]) came out at 2.83; in the test with RAW-Dual [2] (setting [10]), 2.64.
Take `CN(C)c1ccc(C(=O)NCCCCCCC(=O)NO)cc1` (library stock concentration (final ~1000-fold dilution): 10 mM): the “NF-kB SEAP reporter activity” value came to 4.72 in the test on RAW-Dual [3] (agonist: LPS (TLR4) 0.1 ug/mL) and 2.78 in the test on RAW-Dual [3] (setting [4]).
As for `CCOC(=O)C(CCc1ccccc1)NC(C)C(=O)N1C(C(=O)O)CC2CCCC21` (centres undefined) (library stock concentration (final ~1000-fold dilution): 10 mM), the “NF-kB SEAP reporter activity” value in the test with RAW-Dual [1] (agonist: LPS (TLR4) 0.1 ug/mL) stood at 1.05; in the test with RAW-Dual [1] (setting [4]), 0.992; in the test with RAW-Dual [1] (setting [5]) it was 1.03; in the test with RAW-Dual [1] (setting [6]), 1.1.
On to `CCOC(=O)C(CCc1ccccc1)NC(C)C(=O)N1C(C(=O)O)CC2CCCC21` (centres undefined), for which the results for the “NF-kB SEAP reporter activity” value with RAW-Dual [2] (setting [7]) and with RAW-Dual [2] (setting [8]) were 0.92 and 0.824, respectively.
For `Nc1ccc(S(=O)(=O)c2ccc(N)cc2)cc1` (library stock concentration (final ~1000-fold dilution): 10 mM), the “NF-kB SEAP reporter activity” value worked out at 1.18 in the test on RAW-Dual [1] (agonist: LPS (TLR4) 0.1 ug/mL), 1.08 in the test on RAW-Dual [1] (setting [4]), 1.08 in the test on RAW-Dual [1] (setting [5]) and 1.04 in the test with RAW-Dual [1] (setting [6]).
As for `Nc1ccc(S(=O)(=O)c2ccc(N)cc2)cc1`, the “NF-kB SEAP reporter activity” value with RAW-Dual [2] (setting [7]) came to 0.991; in the test with RAW-Dual [2] (setting [8]), 1.01.
Turning to `O=C(c1ccc(C(=O)N2CCC(N3CCCC3)CC2)c(Nc2ccccc2)c1)N1CCC(N2CCCC2)CC1`, the “NF-kB SEAP reporter activity” value in the test on RAW-Dual [2] (setting [7]) was determined as 0.917; in the test on RAW-Dual [2] (setting [8]), 1.12.
Turning to `O=C(c1ccc(C(=O)N2CCC(N3CCCC3)CC2)c(Nc2ccccc2)c1)N1CCC(N2CCCC2)CC1` (library stock concentration (final ~1000-fold dilution): 10 mM), the “NF-kB SEAP reporter activity” value in the test on RAW-Dual [1] (agonist: LPS (TLR4) 0.1 ug/mL) turned out to be 0.933; with RAW-Dual [1] (setting [4]), 0.944; in the test on RAW-Dual [1] (setting [5]), 1.04; with RAW-Dual [1] (setting [6]) it was 1.33.
In the case of `OCCN1CCN(CCCN2c3ccccc3Sc3ccc(Cl)cc32)CC1`, in the test on RAW-Dual [2] (setting [10]), the “NF-kB SEAP reporter activity” value was 1.58.
On to `OCCN1CCN(CCCN2c3ccccc3Sc3ccc(Cl)cc32)CC1` (library stock concentration (final ~1000-fold dilution): 10 mM), for which the “NF-kB SEAP reporter activity” value in the test with RAW-Dual [3] (agonist: LPS (TLR4) 0.1 ug/mL) was 1.07; with RAW-Dual [3] (setting [4]), 0.527; in the test on RAW-Dual [3] (setting [5]) it was 0.739; in the test on RAW-Dual [3] (setting [6]) it was 0.763.
As to `CN(CCN1CCC(OC(=O)Nc2ccccc2-c2ccccc2)CC1)C(=O)c1ccc(CN2CCC(C(N)=O)CC2)cc1`, the “NF-kB SEAP reporter activity” value in the test on RAW-Dual [2] (setting [8]) came out at 1.08.
Turning to `CN(CCN1CCC(OC(=O)Nc2ccccc2-c2ccccc2)CC1)C(=O)c1ccc(CN2CCC(C(N)=O)CC2)cc1` (library stock concentration (final ~1000-fold dilution): 10 mM), the “NF-kB SEAP reporter activity” value in the test on RAW-Dual [1] (agonist: LPS (TLR4) 0.1 ug/mL) is 1.25; with RAW-Dual [1] (setting [4]), 0.452; with RAW-Dual [1] (setting [5]), 0.943; in the test with RAW-Dual [1] (setting [6]), 0.848.
Regarding `C=CCN1CCCC1CNC(=O)c1cc2nn[nH]c2cc1OC.Cl` (centres undefined) (library stock concentration (final ~1000-fold dilution): 10 mM), the “NF-kB SEAP reporter activity” value in the test on RAW-Dual [1] (agonist: LPS (TLR4) 0.1 ug/mL) came out at 1.03; in the test with RAW-Dual [1] (setting [4]), 0.958; with RAW-Dual [1] (setting [5]), 1.01; in the test with RAW-Dual [1] (setting [6]), 1.17.
On to `C=CCN1CCCC1CNC(=O)c1cc2nn[nH]c2cc1OC.Cl` (centres undefined), for which the “NF-kB SEAP reporter activity” value came to 0.951 in the test on RAW-Dual [2] (setting [7]) and 1.03 in the test on RAW-Dual [2] (setting [8]).
As for `O=C(Nc1cc(C(F)(F)F)ccc1C(F)(F)F)c1cc(Br)ccc1O` (library stock concentration (final ~1000-fold dilution): 10 mM), the “NF-kB SEAP reporter activity” value was found to be 2.68 in the test with RAW-Dual [3] (agonist: LPS (TLR4) 0.1 ug/mL), 1.82 with RAW-Dual [3] (setting [4]), 0.573 with RAW-Dual [3] (setting [5]) and 0.839 in the test on RAW-Dual [3] (setting [6]).
On to `O=C(Nc1cc(C(F)(F)F)ccc1C(F)(F)F)c1cc(Br)ccc1O`, for which the results for the “NF-kB SEAP reporter activity” value with RAW-Dual [2] (setting [9]) and in the test with RAW-Dual [2] (setting [10]) were 0.255 and 2.3, respectively.
